Laboratory results reported in patent publication US11654136B2, “Phosphoinositide 3-kinase inhibitor with a zinc binding moiety” (Curis, Inc., priority 2011, dated 2023).

Tests used:
Format in all cases: cell-based
[1] = tested on: WiDr; assay: Cell proliferation assay WiDr; details: Homo sapiens, Colon, 72 hours, read-out: IC50 antiproliferative activity
Experimental: (§1) The cells were then incubated with compounds at various concentrations for 72 hours in culture medium supplemented with 0.5% (v/v) fetal bovine serum (FBS). Growth inhibition was accessed by adenosine triphosphate (ATP) content assay using Promega CellTiter-Glo kit. Promega CellTiter-Glo kit is an ATP monitoring system based on firefly luciferase. Briefly, 16 μl of mammalian cell lysis and substrate solution was added to 84 µl of culture medium per well to lyse the cells and stabilize the ATP. The mixture was shaken and incubated for 30 minutes and subsequently the luminescence was measured. IC50 values were calculated using PRISM software (GraphPad Software) with sigmoidal dose-response curve fitting.

[2] = tested on: HCT116; assay: Cell proliferation assay HCT116; details: Homo sapiens, HCT-116, Colon, 72 hours, read-out: IC50 antiproliferative activity
Experimental: as §1

[3] = tested on: SW403; assay: Cell proliferation assay SW403; details: Homo sapiens, SW-403, Colon, 72 hours, read-out: IC50 antiproliferative activity
Experimental: as §1

[4] = tested on: SW620; assay: Cell proliferation assay SW620; details: Homo sapiens, SW-620, Colon, 72 hours, read-out: IC50 antiproliferative activity
Experimental: as §1

[5] = tested on: SWI-116; assay: Cell proliferation assay SWI-116; details: Homo sapiens, Colon, 72 hours, read-out: IC50 antiproliferative activity
Experimental: as §1

[6] = tested on: T-84; assay: Cell proliferation assay T-84; details: Homo sapiens, T84, Colon, 72 hours, read-out: IC50 antiproliferative activity
Experimental: as §1

[7] = tested on: H358; assay: Cell proliferation assay H358; details: Homo sapiens, NCI-H358, NSCLC, 72 hours, read-out: IC50 antiproliferative activity
Experimental: as §1

[8] = tested on: H292; assay: Cell proliferation assay H292; details: Homo sapiens, NCI-H292, NSCLC, 72 hours, read-out: IC50 antiproliferative activity
Experimental: as §1

[9] = tested on: H2122; assay: Cell proliferation assay H2122; details: Homo sapiens, NCI-H2122, NSCLC, 72 hours, read-out: IC50 antiproliferative activity
Experimental: as §1

[10] = tested on: H460; assay: Cell proliferation assay H460; details: Homo sapiens, NCI-H460, NSCLC, 72 hours, read-out: IC50 antiproliferative activity
Experimental: as §1

[11] = tested on: A549; assay: Cell proliferation assay A549; details: Homo sapiens, NSCLC, 72 hours, read-out: IC50 antiproliferative activity
Experimental: as §1

[12] = tested on: Calu6; assay: Cell proliferation assay Calu6; details: Homo sapiens, Calu-6, NSCLC, 72 hours, read-out: IC50 antiproliferative activity
Experimental: as §1

[13] = tested on: MiaPaca2; assay: Cell proliferation assay MiaPaca2; details: Homo sapiens, MIA PaCa-2, Pancreas, 72 hours, read-out: IC50 antiproliferative activity
Experimental: as §1

[14] = tested on: CaPan2; assay: Cell proliferation assay CaPan2; details: Homo sapiens, Capan-2, Pancreas, 72 hours, read-out: IC50 antiproliferative activity
Experimental: as §1

[15] = tested on: CFPAC-1; assay: Cell proliferation assay CFPAC-1; details: Homo sapiens, Pancreas, 72 hours, read-out: IC50 antiproliferative activity
Experimental: as §1

[16] = tested on: PANC-1; assay: Cell proliferation assay PANC-1; details: Homo sapiens, Pancreas, 72 hours, read-out: IC50 antiproliferative activity
Experimental: as §1

[17] = tested on: SW1990; assay: Cell proliferation assay SW1990; details: Homo sapiens, Pancreas, 72 hours, read-out: IC50 antiproliferative activity
Experimental: as §1

[18] = tested on: HCC1500; assay: Cell proliferation assay HCC1500; details: Homo sapiens, Breast, 72 hours, read-out: IC50 antiproliferative activity
Experimental: as §1

[19] = tested on: HCC1806; assay: Cell proliferation assay HCC1806; details: Homo sapiens, Breast, 72 hours, read-out: IC50 antiproliferative activity
Experimental: as §1

[20] = tested on: MDA-MB-231; assay: Cell proliferation assay MDA-MB-231; details: Homo sapiens, Breast, 72 hours, read-out: IC50 antiproliferative activity
Experimental: as §1

[21] = tested on: SKBr3; assay: Cell proliferation assay SKBr3; details: Homo sapiens, SK-BR-3, Breast, 72 hours, read-out: IC50 antiproliferative activity
Experimental: as §1

[22] = tested on: BT474; assay: Cell proliferation assay BT474; details: Homo sapiens, BT-474, Breast, 72 hours, read-out: IC50 antiproliferative activity
Experimental: as §1

[23] = tested on: MDA-MB-361; assay: Cell proliferation assay MDA-MB-361; details: Homo sapiens, Breast, 72 hours, read-out: IC50 antiproliferative activity
Experimental: as §1

[24] = tested on: UACC-893; assay: Cell proliferation assay UACC-893; details: Homo sapiens, Breast, 72 hours, read-out: IC50 antiproliferative activity
Experimental: as §1

[25] = tested on: MDA-MB-453; assay: Cell proliferation assay MDA-MB-453; details: Homo sapiens, Breast, 72 hours, read-out: IC50 antiproliferative activity
Experimental: as §1

[26] = tested on: MCF-7; assay: Cell proliferation assay MCF-7; details: Homo sapiens, MCF7, Breast, 72 hours, read-out: IC50 antiproliferative activity
Experimental: as §1

[27] = tested on: T47D; assay: Cell proliferation assay T47D; details: Homo sapiens, Breast, 72 hours, read-out: IC50 antiproliferative activity
Experimental: as §1

[28] = tested on: ZR-75-1; assay: Cell proliferation assay ZR-75-1; details: Homo sapiens, Breast, 72 hours, read-out: IC50 antiproliferative activity
Experimental: as §1

[29] = tested on: MDA-MB-468; assay: Cell proliferation assay MDA-MB-468; details: Homo sapiens, Breast, 72 hours, read-out: IC50 antiproliferative activity
Experimental: as §1

[30] = tested on: MOLT-4; assay: Cell proliferation assay MOLT-4; details: Homo sapiens, ALL, 72 hours, read-out: IC50 antiproliferative activity
Experimental: as §1

[31] = tested on: SUP-B15; assay: Cell proliferation assay SUP-B15; details: Homo sapiens, ALL, 72 hours, read-out: IC50 antiproliferative activity
Experimental: as §1

[32] = tested on: HL-60; assay: Cell proliferation assay HL-60; details: Homo sapiens, AML, 72 hours, read-out: IC50 antiproliferative activity
Experimental: as §1

[33] = tested on: U937; assay: Cell proliferation assay U937; details: Homo sapiens, U-937, AML, 72 hours, read-out: IC50 antiproliferative activity
Experimental: as §1

[34] = tested on: THP-1; assay: Cell proliferation assay THP-1; details: Homo sapiens, AML, 72 hours, read-out: IC50 antiproliferative activity
Experimental: as §1

[35] = tested on: MV-4-11; assay: Cell proliferation assay MV-4-11; details: Homo sapiens, MV4-11, AML, 72 hours, read-out: IC50 antiproliferative activity
Experimental: as §1

[36] = tested on: Pfeiffer; assay: Cell proliferation assay Pfeiffer; details: Homo sapiens, B-Cell Lymphoma, 72 hours, read-out: IC50 antiproliferative activity
Experimental: as §1

[37] = tested on: Raji; assay: Cell proliferation assay Raji; details: Homo sapiens, B-Cell Lymphoma, 72 hours, read-out: IC50 antiproliferative activity
Experimental: as §1

[38] = tested on: RL; assay: Cell proliferation assay RL; details: Homo sapiens, B-Cell Lymphoma, 72 hours, read-out: IC50 antiproliferative activity
Experimental: as §1

[39] = tested on: DOHH2; assay: Cell proliferation assay DOHH2; details: Homo sapiens, DOHH-2, B-Cell Lymphoma, 72 hours, read-out: IC50 antiproliferative activity
Experimental: as §1

[40] = tested on: Granta 519; assay: Cell proliferation assay Granta 519; details: Homo sapiens, B-Cell Lymphoma, 72 hours, read-out: IC50 antiproliferative activity
Experimental: as §1

[41] = tested on: Su-DHL4; assay: Cell proliferation assay Su-DHL4; details: Homo sapiens, SU-DHL-4, B-Cell Lymphoma, 72 hours, read-out: IC50 antiproliferative activity
Experimental: as §1

[42] = tested on: Daudi; assay: Cell proliferation assay Daudi; details: Homo sapiens, B-Cell Lymphoma, 72 hours, read-out: IC50 antiproliferative activity
Experimental: as §1

[43] = tested on: HH; assay: Cell proliferation assay HH; details: Homo sapiens, T-Cell Lymphoma, 72 hours, read-out: IC50 antiproliferative activity
Experimental: as §1

[44] = tested on: MJ; assay: Cell proliferation assay MJ; details: Homo sapiens, T-Cell Lymphoma, 72 hours, read-out: IC50 antiproliferative activity
Experimental: as §1

[45] = tested on: HuT78; assay: Cell proliferation assay HuT78; details: Homo sapiens, T-Cell Lymphoma, 72 hours, read-out: IC50 antiproliferative activity
Experimental: as §1

[46] = tested on: K562; assay: Cell proliferation assay K562; details: Homo sapiens, CML, 72 hours, read-out: IC50 antiproliferative activity
Experimental: as §1

[47] = tested on: MEG-01; assay: Cell proliferation assay MEG-01; details: Homo sapiens, CML, 72 hours, read-out: IC50 antiproliferative activity
Experimental: as §1

[48] = tested on: RPMI-8226; assay: Cell proliferation assay RPMI-8226; details: Homo sapiens, Multiple Myeloma, 72 hours, read-out: IC50 antiproliferative activity
Experimental: as §1

[49] = tested on: OPM-2; assay: Cell proliferation assay OPM-2; details: Homo sapiens, Multiple Myeloma, 72 hours, read-out: IC50 antiproliferative activity
Experimental: as §1

[50] = tested on: ARH77; assay: Cell proliferation assay ARH77; details: Homo sapiens, ARH-77, Multiple Myeloma, 72 hours, read-out: IC50 antiproliferative activity
Experimental: as §1

IC50 [2]: 1000 to 10000 nM | IC50 [3]: 1000 to 10000 nM | IC50 [4]: 1000 to 10000 nM | IC50 [7]: 1000 to 10000 nM | IC50 [8]: 1000 to 10000 nM | IC50 [9]: 1000 to 10000 nM | IC50 [10]: > 10000 nM | IC50 [11]: 1000 to 10000 nM | IC50 [12]: 1000 to 10000 nM | IC50 [13]: 1000 to 10000 nM | IC50 [16]: 1000 to 10000 nM | IC50 [17]: 1000 to 10000 nM | IC50 [18]: 1000 to 10000 nM | IC50 [19]: 1000 to 10000 nM | IC50 [20]: 1000 to 10000 nM | IC50 [21]: 1000 to 10000 nM | IC50 [22]: 1000 to 10000 nM | IC50 [23]: 1000 to 10000 nM | IC50 [25]: 100 to 1000 nM | IC50 [26]: 1000 to 10000 nM | IC50 [27]: 1000 to 10000 nM | IC50 [29]: 1000 to 10000 nM | IC50 [30]: 100 to 1000 nM | IC50 [32]: 100 to 1000 nM | IC50 [33]: 100 to 1000 nM | IC50 [34]: > 10000 nM | IC50 [35]: 100 to 1000 nM | IC50 [37]: 1000 to 10000 nM | IC50 [41]: 1000 to 10000 nM | IC50 [42]: 1000 to 10000 nM | IC50 [46]: 1000 to 10000 nM | IC50 [48]: 1000 to 10000 nM
SMILES: O=C(CCCCCCC(=O)Nc1ccccc1)NO [SAHA, Suberoylanilide hydroxamic acid]
IC50 [1]: 1000 to 10000 nM | IC50 [5]: 1000 to 10000 nM | IC50 [6]: 1000 to 10000 nM | IC50 [14]: 1000 to 10000 nM | IC50 [15]: 1000 to 10000 nM | IC50 [24]: 1000 to 10000 nM | IC50 [28]: 1000 to 10000 nM | IC50 [31]: 100 to 1000 nM | IC50 [36]: 1000 to 10000 nM | IC50 [38]: 100 to 1000 nM | IC50 [39]: 100 to 1000 nM | IC50 [40]: 1000 to 10000 nM | IC50 [43]: 100 to 1000 nM | IC50 [44]: 100 to 1000 nM | IC50 [45]: 10 to 100 nM | IC50 [47]: 1000 to 10000 nM | IC50 [49]: 100 to 1000 nM | IC50 [50]: 1000 to 10000 nM
